Source: PubChem BioAssay AID624202 (National Center for Advancing Translational Sciences (NCATS), 2012)
The campaign covered roughly 380,000 compounds. About 4,000 (1.1%) were called active. Inconclusive means that the source gave no clear call. Such entries were picked first, then a sample of the others. Calls come from the whole dose curve; as a rule, active = well fitted activation curve with a large enough effect; inconclusive = small, poorly fitted or top-dose-only effect; inactive = no such curve, though single readings can be large or run the other way. A potency beside an inconclusive call is a rough fit, not a confirmed value.

Assay: qHTS Assay to Identify Small Molecule Activators of BRCA1 Expression; note: nearly all actives have a fitted effect of over 80% in size
Settings: MCF7-BRCA1-FFLuc reporter, luminescence, 48 h; activation: at 46.1 µM (top of the series), scaled: vehicle 0%, 10 µM genistein 100% unless noted
In short: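 MCF7-BRCA1-FFLuc, 2000 cells/well; 2 h attach, 37 °C/5% CO2; compound 48 h; luciferase substrate 15 min; luminescence end-point. Norm. to genistein 10 microM max activation and DMSO; concentration-response curves fitted.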
Potency is the fitted concentration of half-maximal effect; tags give direction and shape of the fitted curve.

Which Potency does the source give for Cc1ccc(C(=O)Nc2ccc3c(c2)ncn3C)cc1 here?
The Potency was inconclusive: 4.47 µM [activator, full curve, poor fit].

For COC(=O)CCC(=O)OC1(C)C(=O)C2=CN(c3ccc(OC)cc3)C(c3ccc(OC)cc3)=CC2=C(Br)C1=O (configuration not stated), which Potency is on record?
Its Potency is “inactive”.

With CCNC(=S)N/N=C/c1ccco1 as the compound, how does the Potency read?
The Potency was “inactive”.

With Cc1ccsc1C(=O)N/N=C/c1ccc([N+](=O)[O-])cc1 as the compound, how does the Potency read?
Its Potency is inconclusive: 2.82 µM [activator, full curve, poor fit].

For O=C(CNc1cccc(F)c1)N1CCc2ccccc2C1, which Potency is on record?
The Potency was active: 7.94 µM.

With Cc1cc(C(=O)Nc2ccc(N3CCOCC3)c(Cl)c2)c(C)o1 as the compound, how does the Potency read?
The Potency was inconclusive: 15.8 µM [activator, partial curve, poor fit].

For Cc1csc(NC(=O)CSc2nnc(-c3ccccc3)o2)n1, which Potency is on record?
Its Potency is inconclusive: 2 µM [activator, partial curve, poor fit].

Which Potency does the source give for O=C(Nc1nccs1)c1ccc2c(c1)OCO2 here?
The Potency was active: 8.91 µM.

Which Potency does the source give for O=C(CCCOc1ccccc1)N1CCN(c2ccc(F)cc2)CC1 here?
The Potency was inconclusive: 10 µM [activator, partial curve, poor fit].

With O=[N+]([O-])c1nn(-c2ccc3c(c2)OCCO3)n(O)c1=NCc1ccccc1Cl as the compound, how does the Potency read?
Its Potency is inconclusive: 2.51 µM [activator, full curve, poor fit].

With Cc1ccc2c(c1)COc1c3ccc(C(=O)N[C@@H](CO)C(C)C)cc3nn1-2 as the compound, how does the Potency read?
The Potency was active: 6.31 µM.

For Nc1cnc(Nc2ccc(Br)cc2)nc1N, which Potency is on record?
Its Potency is inconclusive: 17.8 µM [activator, single point].

Which Potency does the source give for O=C(CSc1nccc(=O)[nH]1)Nc1ccc2c(c1)OCCO2 here?
Its Potency is inconclusive: 7.94 µM [activator, partial curve, poor fit].

Which Potency does the source give for COc1ccc(-c2csc3ncnc(N4CCN(c5ccccc5OC)CC4)c23)cc1 here?
The Potency was “inactive”.

For C=CCn1c(/N=C/c2ccc(N(C)C)cc2)nc2ccccc21, which Potency is on record?
Its Potency is “inactive”.

Which Potency does the source give for CS(=O)(=O)c1ccc(NC(=O)COc2ccccc2C(=O)Nc2ccccc2)cc1 here?
Its Potency is “inactive”.

With Cc1ccc(Nc2nc(N)nc(CN3CCN(C)CC3)n2)cc1 as the compound, how does the Potency read?
Its Potency is inconclusive: 25.1 µM [activator, single point].

With CC(CN1CCOCC1)OC(=O)c1ccc2c(c1)OCCO2 (configuration not stated) as the compound, how does the Potency read?
Its Potency is active: 7.94 µM.

With c1ccc2oc(NC3=NCN(C4CCCCC4)CN3)nc2c1 as the compound, how does the Potency read?
Its Potency is active: 2.82 µM.

With O=C(Oc1oc(-c2ccco2)nc1C=Nc1ccccc1)c1ccoc1 as the compound, how does the Potency read?
Its Potency is “inactive”.

Which Potency does the source give for COc1cc(/C=N/Nc2ccccc2)ccc1O here?
Its Potency is “inactive”.

For CN1CCN(CCCOc2ccc(-c3ccccc3)cc2)CC1, which Potency is on record?
Its Potency is inconclusive: 2.51 µM [activator, partial curve, poor fit].
